Source: the supplement of paper PMC10338343
± gives the standard deviation. This is a selection; strong and weak results do not stand in their true shares.

Tested on: MIWI (PIWIL1) piRISC loaded with piRNA #1 (30 nt)
Test: pre-steady-state target cleavage rate (min^-1); MIWI and MILI are mouse PIWI proteins and EfPiwi is from a freshwater sponge; tags in brackets are library labels; higher = faster piRNA-guided slicing of the target
Settings: guide: piRNA #1 5'p-UGAGGUAGUAGGUUGUAUAGUAUCCAGAGG; auxiliary factor: 500 nM mouse GTSF1
Procedure, shortened: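 Active affinity-purified piRISC carrying one synthetic guide (1 nM) was mixed with a transcribed, DNA-blocked target RNA library […] in HEPES–potassium acetate buffer at 33 °C for 0–8 or 0–960 min, with or without 500 nM GTSF1 partner protein. Uncleaved targets were then sequenced and normalised to depth and to weakly complementary targets. Three trials were pooled, and k3 was capped at 0.0001 min^-1. A burst-and-steady-state fit was applied to obtain the pre-steady-state cleavage rate.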
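Further: 1 nM active piRISC with 0.1 nM target library at 33 °C single turnover.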

| Sequence | pre-steady-state target cleavage rate |
| --- | --- |
| GGAGACGAUUCUAUACAAGCUACUACCUCA | 1.12 ± 0.065 |
| GGAGACCUUACUAUACAACCUGCUACCUCA | 0.579 ± 0.052 |
| GGAGACCUUACUUUACAACCUACUACCUGA | 0.3 ± 0.043 |
| GGAGAGGAUACUAUACAACCUACUACCUA | 0.537 ± 0.044 |
| GCUCAGGAUACUAUACAACCUACUAGCUCA | 0.477 ± 0.041 |
| GGAGACGAUACUAUACAAGCUACUACCACA | 1.3 ± 0.054 |
| GGAGAGGAUACUAUACAACCUAACUACCUCA | 0.0248 ± 0.0042 |
| GGAGACCUUACUAUACAACCUACAUACCUCA | 0.968 ± 0.12 |
| CCUCUGGAUACUAUACAUCCUACUACGUCA | 0.921 ± 0.063 |
| GGAGACCUAACUAUACAAGGUACUACCUCA | 0.0155 ± 0.0045 |
| GGAGAGGAUAGCUAUACAACCUACUACCUCA | 0.179 ± 0.018 |
| GGAGACCUUACAAUACAACCUUCUACCUCA | 0.0854 ± 0.015 |
| CCUCUGGAAUCUAUACAACCUACUACCUCA | 1.78 ± 0.1 |
| GGAGACCUAACUAUACUACCUACUACCUGA | 0.0795 ± 0.023 |
| GCUCUGGAUACUAUACAUGGUACUACCUCA | 0.044 ± 0.0084 |
| GGACUGGAUACUAUUGUACCUACUACCUCA | 0.11 ± 0.024 |
| GGAGACCUAUGUAUACAACCUUCUACCACA | 0.00658 ± 0.0021 |
| CCUCUCGAUACUAUACAACGUACUACCUCA | 1.41 ± 0.076 |
| GGAGACCAUACUAUACUACCUAGUACCUCA | 0.259 ± 0.027 |
| GGAGACCAUACCUAUACAACCUACUACCUCA | 0.775 ± 0.073 |

| Sequence | pre-steady-state target cleavage rate |
| --- | --- |
| GGAGACCUAACUAUACAACCUACAUCCUCA | 0.243 ± 0.026 |
| GGAGACCUAACUAUACAACCUACUAUCCUCA | 0.805 ± 0.089 |
| GGACUGGAUACUAUACUACCUACUUCCUCA | 0.0485 ± 0.0093 |
| GGAGACGAUACUUUACAACGUACUACCUCA | 0.761 ± 0.049 |
| GCAGUGGAUACUAUACAACCUACUACCUCA | 1.85 ± 0.095 |
| GGAGACCUUACUAUACAUCCUAGUACCUCA | 0.263 ± 0.027 |
| GCAGAGGAUACUAUACAACCUACUACCUCA | 1.48 ± 0.075 |
| GGAGAGGAUACUAUACAAGCUACUACCACA | 1.15 ± 0.056 |
| GGAGACCAUACUAAACAACCUACUACCUCA | 1.25 ± 0.11 |
| GGACUGGAUAUCUAUACAACCUACUACCUCA | 0.777 ± 0.067 |
| GCUCUGGAAACUAUACAACCUACUACCUGA | 0.961 ± 0.17 |
| CCUCUGGAUACUAUACAACCUACUUCCUCA | 0.668 ± 0.053 |
| GGAGUGGAUACUAUAGAACCUACUACCACA | 0.0487 ± 0.012 |
| GGAGACGAUACUAUACAACCUUCUACCUGA | 0.288 ± 0.044 |
| GGAGUGGAUACUAAACAACCUUCUACCUCA | 0.591 ± 0.033 |
| GGAGACCUAUGAUUACAACCUAGUAGCUCA | < 0.0001 |
| GGUCAGGAUACAAUACAACCUACUACCUCA | 1.69 ± 0.1 |
| GGAGACCUAUGUAUACAACCUACUAGCACA | 0.00244 ± 0.0019 |
| CCUCUGGAUAGUAUACAUCCUACUACCUCA | 0.245 ± 0.03 |
